This is an account of results in PubChem BioAssay AID1745853 (National Center for Advancing Translational Sciences (NCATS), 2022).

What all share (assay): Primary Screen for Target Class Profiling of Small Molecule Inhibitors of Methyltransferases
The target of experiment [1] is Glycine N-methyltransferase (Homo sapiens) (UniProt Q14749). The settings on record: purified enzyme, MTase-Glo SAH luminescence; measured here: GNMT inhibition; at 40 µM; stronger effect = lower value. The gist of the method: (§1)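 Each enzyme was reacted with SAM and its substrate, with compounds tested once at 40 uM; SAH formed was read by MTase-Glo luminescence.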
The target in experiment [2] is Guanidinoacetate N-methyltransferase (Homo sapiens) (UniProt Q14353). The settings on record: purified enzyme, MTase-Glo SAH luminescence; measured here: GAMT inhibition; at 40 µM; stronger effect = lower value. The gist of the method: as §1
Experiment [3] deals with Histamine N-methyltransferase (Homo sapiens) (UniProt P50135). The settings on record: purified enzyme, MTase-Glo SAH luminescence; measured here: HNMT inhibition; at 40 µM; stronger effect = lower value. A digest of the protocol:
as §1

Experiment [4] addresses Nicotinamide N-methyltransferase (Homo sapiens) (UniProt P40261). The settings on record: purified enzyme, MTase-Glo SAH luminescence; measured here: NNMT inhibition; at 40 µM; stronger effect = lower value. The gist of the method: as §1
Experiment [5] addresses Phenylethanolamine N-methyltransferase (Homo sapiens) (UniProt P11086). As to conditions: purified enzyme, MTase-Glo SAH luminescence; measured here: PNMT inhibition; at 40 µM; stronger effect = lower value. A digest of the protocol: as §1

Each structure is given as a SMILES string. The list shows a part of the results. Further columns of the screen follow, without active or inactive calls.
On the % scale 0 is the no-effect control and ±100 the full control effect.

With `COc1ccccc1CNC(=O)C1(C)Cn2nc(-c3ccccc3)cc2C(=O)N1c1cc(C)cc(C)c1` (stereo unspecified), the activity change, negative = inhibition in experiment [1] is 2.27%; in experiment [2], 0.774%; in experiment [3], -1.47%; in experiment [4] it was 6.97%; in experiment [5], -1.78%.

In the case of `CCOc1ccc(CNC(=O)c2ncn3c2C(=O)N(C2CC2)C(C)(C(=O)NCc2ccc(F)cc2)C3)cc1` (stereo unspecified), the activity change, negative = inhibition in experiment [1] is -1.23%; in experiment [2] it was 2.94%; in experiment [3], 10.3%; in experiment [4], 2.66%; in experiment [5] it was 9.99%.

Regarding `O=c1cc(N2CCOCC2)oc2c(-c3ccccc3O)nccc12`, the activity change, negative = inhibition was -0.379% in experiment [1]; -1.21% in experiment [2]; -1.77% in experiment [3]; -11.1% in experiment [4]; -13.8% in experiment [5].

Take `COc1ccc(-c2cc3n(n2)CC(C)(C(=O)NC2CCCCC2)N(Cc2ccco2)C3=O)cc1` (stereo unspecified): the activity change, negative = inhibition is -8.25% in experiment [1]; -1.42% in experiment [2]; -2.83% in experiment [3]; -6.27% in experiment [4]; -3.38% in experiment [5].

Consider `CCCN1CC2(CCN(C)CC2)CC1C(=O)N(C)Cc1nnc(C)o1` (stereo unspecified), for which the activity change, negative = inhibition in experiment [1] was -6.53%; in experiment [2], -9.04%; in experiment [3], -3.83%; in experiment [4], -5.91%; in experiment [5] it was 11%.

For `Cc1ccc(C(=O)Cn2nc3n(CCc4ccccc4)c(=O)c4ccccc4n3c2=O)c(C)c1`, the activity change, negative = inhibition in experiment [1] was 1.05%; in experiment [2], 3.76%; in experiment [3], -1.62%; in experiment [4], -1.02%; in experiment [5], -0.784%.

Take `CN(C)CC(c1ccc(O)cc1)C1(O)CCCCC1` (stereo unspecified): the activity change, negative = inhibition in experiment [1] is -0.691%; in experiment [2] it was 1.24%; in experiment [3], 9.28%; in experiment [4], -13.6%; in experiment [5], 4%.

Regarding `CC(C)CCn1c(=O)c2ccccc2n2c(CCC(=O)NCc3ccc4c(c3)OCO4)nnc12`, the activity change, negative = inhibition in experiment [1] was -6.37%; in experiment [2] it was 3.68%; in experiment [3], -0.34%; in experiment [4] it was -10.3%; in experiment [5] it was -3.06%.

With `C=CCn1nc(C)c(CN2CC[C@H](N3CCN(C)CC3)[C@H](CCC(=O)O)C2)c1C`, the activity change, negative = inhibition was -5.91% in experiment [1]; -5.75% in experiment [2]; -2.06% in experiment [3]; -7.61% in experiment [4]; -20% in experiment [5].

As to `CN1C(=O)c2cc(C(=O)NCc3cccc(Cl)c3)nn2CC1(C)C(=O)NC1CCCC1` (stereo unspecified), the activity change, negative = inhibition in experiment [1] was 4.71%; in experiment [2], 4.9%; in experiment [3], 0.617%; in experiment [4], -1.86%; in experiment [5] it was 2.54%.

In the case of `CN1C(=O)c2cc(C(=O)NCCc3ccc(Cl)cc3)nn2CC1(C)C(=O)NC1CCCC1` (stereo unspecified), the activity change, negative = inhibition in experiment [1] is 4.12%; in experiment [2] it was 0%; in experiment [3], 1.47%; in experiment [4], 1.55%; in experiment [5] it was -1.98%.

As for `CN(C)[C@@H]1[C@@H](NS(=O)(=O)c2cccc3c2OCCO3)[C@H]2CCO[C@H]21`, the activity change, negative = inhibition in experiment [1] was -1.24%; in experiment [2], 0.179%; in experiment [3], 2.15%; in experiment [4], -1.75%; in experiment [5], 0.025%.

As for `COc1ccc(S(=O)(=O)N(CCO)c2ccccc2CN(C)C/C=C/c2ccc(Cl)cc2)cc1`, the activity change, negative = inhibition was -12.7% in experiment [2], -31.6% in experiment [4] and -18.5% in experiment [5].

For the molecule `COc1cc(F)ccc1-c1nc(-c2c(C)noc2C)cc2[nH]c(C)cc12`, the activity change, negative = inhibition in experiment [1] was -2.76%; in experiment [2] it was -1.5%; in experiment [3] it was 1.04%; in experiment [4], -44.4%; in experiment [5], 1.83%.

Turning to `Cc1ccc(-c2nc(CN3CCCC3=O)no2)cc1`, the activity change, negative = inhibition in experiment [1] is -4.26%; in experiment [2] it was -11.5%; in experiment [3] it was -2.6%; in experiment [4] it was -16.4%; in experiment [5], -6.72%.

As for `CN1CCN(C(=O)c2nn(C)c3c2CCCC3)CC12CCNC(=O)CC2` (stereo unspecified), the activity change, negative = inhibition in experiment [1] was -2.87%; in experiment [2] it was -5.94%; in experiment [3], -4.04%; in experiment [4], -7.49%; in experiment [5] it was -8.32%.

Consider `Cc1ccccc1C(C(=O)NC1CCCCC1)N(C(=O)Cn1cnc2ccccc21)c1cccc(F)c1` (stereo unspecified), for which the activity change, negative = inhibition in experiment [1] was -9.74%; in experiment [2], -14.6%; in experiment [3], -1.63%; in experiment [4] it was -31.7%; in experiment [5], -10.5%.

As to `COCCCN1C(=O)c2cc(-c3ccc(OC)cc3)nn2CC1(C)C(=O)NCc1ccccc1` (stereo unspecified), the activity change, negative = inhibition was 3.43% in experiment [1]; 0.019% in experiment [2]; 2.28% in experiment [3]; 8.25% in experiment [4]; -0.182% in experiment [5].

Take `CN1C(=O)c2cc3ccccc3n2CC1(C)C(=O)NCC(=O)NCc1ccccn1` (stereo unspecified): the activity change, negative = inhibition in experiment [1] amounted to 2.33%; in experiment [2], 0%; in experiment [3], 10.7%; in experiment [4], 2.28%; in experiment [5] it was 7.01%.

For the molecule `CCCn1cc(S(=O)(=O)N2C[C@H](C3CC3)[C@@H](N)C2)cn1`, the activity change, negative = inhibition in experiment [1] is -3.65%; in experiment [2] it was -6.18%; in experiment [3] it was -1.34%; in experiment [4], -6.93%; in experiment [5], -6.26%.

Regarding `O=C(Nc1ccccc1Br)N[C@@H]1CCN(c2ccc(C(F)(F)F)cn2)C1`, the activity change, negative = inhibition was -2.6% in experiment [2], -29.5% in experiment [4] and -12.5% in experiment [5].

Turning to `CCOC(=O)c1cc2n(n1)CC(C)(C(=O)NCCOC)N(c1cc(Cl)ccc1OC)C2=O` (stereo unspecified), the activity change, negative = inhibition in experiment [1] is 3.56%; in experiment [2], 3.94%; in experiment [3], 6.63%; in experiment [4], -0.148%; in experiment [5], 0.297%.

For `CCc1noc(-c2cn(C3CCN(C(=O)c4cc(Cl)ccc4F)CC3)nn2)n1`, the activity change, negative = inhibition in experiment [1] is -5.07%; in experiment [2], -4.81%; in experiment [3] it was -1.35%; in experiment [4] it was -5.96%; in experiment [5] it was -3.27%.

As for `O=C(C1CC1)N(C1CCOCC1)C1CCN(S(=O)(=O)C2CC2)CC1`, the activity change, negative = inhibition in experiment [1] is -0.228%; in experiment [2] it was -6.58%; in experiment [3], 0.337%; in experiment [4], -10.2%; in experiment [5] it was -24.9%.

For `CCCN1CCN(C(=O)Cn2c(=O)oc3cc(S(=O)(=O)NCc4ccccc4)ccc32)CC1`, the activity change, negative = inhibition is -5.04% in experiment [1]; 0.402% in experiment [2]; -0.142% in experiment [3]; 3.6% in experiment [4]; -3.56% in experiment [5].

For `CCN1C(=O)c2cc(C(=O)NCc3cccc(C)c3)nn2CC1(C)C(=O)NC1CCCC1` (stereo unspecified), the activity change, negative = inhibition in experiment [1] was 5.61%; in experiment [2] it was 0%; in experiment [3], -2.37%; in experiment [4], 6.97%; in experiment [5], 5.85%.

On to `COc1ccc(N(C(=O)c2ccco2)S(=O)(=O)c2ccc3c(c2)n(C)c(=O)n3C)cc1`, for which the activity change, negative = inhibition in experiment [1] was -5.1%; in experiment [2] it was 6.55%; in experiment [3] it was 3.94%; in experiment [4] it was -4.39%; in experiment [5], -0.079%.

Take `Cc1ccc(N2C(=O)c3cc4sccc4n3CC2(C)C(=O)NC2CCCCCC2)cc1` (stereo unspecified): the activity change, negative = inhibition in experiment [1] was -7.6%; in experiment [2] it was 0.699%; in experiment [3], -3.02%; in experiment [4], -6.52%; in experiment [5], -7.28%.

As to `CC1CCCC(NC(=O)C2(C)Cn3c(ccc3-c3ccco3)C(=O)N2CCc2ccccc2)C1C` (stereo unspecified), the activity change, negative = inhibition in experiment [1] is -10.4%; in experiment [2], 4.66%; in experiment [3], -5.47%; in experiment [4], -15.5%; in experiment [5], -1.9%.

As for `Cn1cc(C(=O)NC2CC(c3cc(N4CCOCC4)ncn3)C2)cn1` (stereo unspecified), the activity change, negative = inhibition in experiment [1] was -9.55%; in experiment [2], -7.11%; in experiment [3], -3.81%; in experiment [4], -36.6%; in experiment [5], -3.45%.
